The values that follow come from patent US6417197B1, “Acylated n-hydroxy methyl thalidomide prodrugs with immunomodulator action” (Gruenenthal GmbH, priority 1996, dated 2002).

The procedure of the data set:
The solubility in water was determined by UV spectroscopy at 300 nm and 25° C.

For the substance “[3-(1,3-dihydro-1,3-dioxo-2H-isoindol-2-yl)-2,6-dioxo-piperidin-1-yl]-methoxycarbonylpropionic acid [Compound 9]”, the solubility in water stood at 16.7 mg/mL and the “solubility in water, corresponding thalidomide amount” value amounted to 11.1 mg thalidomide/ml.
